Data reported in patent publication US20050261129A1, “Method of protecting plants from bacterial and fungal diseases” (priority 2003, published 2005).

Assays:
[1] = system: bacterial spot (Xanthomonas campestris pv. vesicatoria) and bacterial speck (Pseudomonas syringae pv. tomato); experiment: Tomato SAR trial, greenhouse bacterial cluster counts (Example 9); conditions: number of bacterial lesions on a total of 100 tomato seedlings; each treatment followed by BONZI 5 ppm
Method: (§1) In this example, the efficacy of several experimental systemic acquired resistance (SAR) compositions in controlling bacterial spot (Xanthomonas campestris pv. vesicatoria) and bacterial speck (Pseudomonas syringae pv. tomato) in tomato plants was determined. The SAR compositions tested are noted in Table 11.
(§2) Tomatoes were seeded in a green house and the SAR compositions applied three separate times, first as a drench nine days after seeding, the second at the 2-leaf stage 15 days after seeding, and finally as a foliar application in the filed approximately two months from seeding. Each treatment was followed up by a 5 ppm application of a plant growth regulator comprising paclobutrazol available under the name BONZI from Syngenta, Greensboro, N.C. The tomatoes were transplanted in single twin-row plots, seven meters in length with rows spaced 1.65 m apart. This procedure was replicated four times in a randomized complete block design. The seedlings were transplanted approximately 1.5 months after seeding using a commercial transplanter. The foliar applications were applied using a specialized small plot research CO2 sprayer with a three nozzled hand-held boom applying 200 L/ha of spray mixture. Foliar bacterial disease assessments were made prior to transplanting and in the field approximately 3.5 months after seeding. Phytotoxicity ratings were also taken in green house prior to transplanting.

[2] = system: bacterial spot (Xanthomonas campestris pv. vesicatoria) and bacterial speck (Pseudomonas syringae pv. tomato); experiment: Tomato SAR trial, field foliar bacterial disease ratings (Example 9); conditions: 0, no control, foliage severely damaged; 10, complete control; approximately 3.5 months after seeding; with BONZI 5 ppm
Method: as §1, §2

Row | Structure (SMILES) | Greenhouse Evaluations: Bacterial Cluster counts [1] | Field Evaluations: Foliar Disease Ratings (0-10) [2]
1 | COC(=O)[C@@]1(C)CC[C@]2(C(=O)O)CC[C@]3(C)C(=CCC4[C@@]5(C)CCC(O)[C@@](C)(CO)C5CC[C@]43C)C2C1 (stereo partly drawn) [Sapogenin 1, Phytolaccagenic acid] | 12.3 | 6.8
2 | COC(=O)[C@@]1(C)CC[C@]2(C(=O)O)CC[C@]3(C)C(=CCC4[C@@]5(C)CCC(O)[C@@](C)(CO)C5CC[C@]43C)C2C1 (stereo partly drawn) [Sapogenin 4, Phytolaccagenic acid] | 19.7 | 7.8
3 | CC1(C)CC[C@]2(C(=O)O)CC[C@]3(C)C(=CC[C@@H]4[C@@]5(C)CC[C@H](O)C(C)(C)[C@@H]5CC[C@]43C)[C@@H]2C1 [Sapogenin 6, Oleanolic acid] | 31.3 | 8.0
4 | CC1(C)CC[C@]2(C(=O)O)CC[C@]3(C)C(=CC[C@@H]4[C@@]5(C)CC[C@H](O)[C@@](C)(CO)[C@@H]5CC[C@]43C)[C@@H]2C1 [Sapogenin 5, Hederagenin] | 23.3 | 8.0
5 | CC1(C)CC[C@]2(C(=O)O)CC[C@]3(C)C(=CC[C@@H]4[C@@]5(C)CC[C@H](O)[C@@](C)(CO)[C@@H]5CC[C@]43C)[C@@H]2C1 [Sapogenin 2, Hederagenin] | 19.0 | 6.8
6 | CC1(C)CC[C@]2(C(=O)O)CC[C@]3(C)C(=CC[C@@H]4[C@@]5(C)CC[C@H](O)C(C)(C)[C@@H]5CC[C@]43C)[C@@H]2C1 [Sapogenin 3, Oleanolic acid] | 2.7 | 6.5
